Reference: ChEMBL document CHEMBL1201862, “PubChem BioAssay data set” (2004)
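These data come from cells grown in 96-well plates and exposed to compound for 48 hours at five concentrations. Here, GI50 denotes the concentration required for 50% inhibition of growth.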 Calls of active or inactive are those of the source. Cut-off read from the data, not from the text of the source: active = GI50 up to about 1.1 µM and inactive = higher.

Each compound was assayed on NCI-H322M (assay: NCI tumour cell line growth inhibition, 48 h).
In the case of Nc1nc(O)c2c(ncn2CC(O)CO)n1 (centres undefined), the GI50 is reported as inactive: > 100 µM. In the case of Cc1cc(O)nc2cc3oc4ccccc4c3cc12, the GI50 is reported as inactive: 47.4 µM. In the case of COc1ccc2c(c1)c(=O)c1c(NCCCN(C)CCCNc3ccc4c(=O)n(CCN(C)C)c(=O)n5c6ccc(OC)cc6c(=O)c3c45)ccc3c(=O)n(CCN(C)C)c(=O)n2c31, the GI50 is reported as active: < 0.01 µM. In the case of Clc1c2ncccc2cc2nn[nH]c12, the GI50 is reported as inactive: > 100 µM. In the case of C=CC(C)CCC(C/C=C(\C)CCC=C(C)C)C(=C)CCCC(C)C (centres undefined), the GI50 is reported as inactive: > 100 µM. For COC(=O)c1nn2ccc3ccccc3c2c1C(=O)OC, the GI50 was inactive: > 100 µM. For NC1CCC(N(CC(=O)O)CC(=O)O)C(N(CC(=O)O)CC(=O)O)C1 (centres undefined), the GI50 was inactive: > 100 µM. For Nc1nc2c(ncn2C2OC(CO)C(O)C2O)c(=O)o1 (centres undefined), the GI50 was inactive: > 100 µM. With Cc1cc(OCC(O)CO)ccc1-c1ccccc1 (centres undefined) the GI50 was inactive: > 100 µM. CN(C)P(=O)(Oc1occc1C(O)Cc1ccccc1)N(C)C (centres undefined) was tested, and the GI50 was inactive: > 100 µM. In the case of C=CCC(C(=O)O)c1ccccc1 (centres undefined), the GI50 is reported as inactive: > 100 µM. O=[N+]([O-])c1ccc2c(c1)nc(Cc1ccc(Cl)cc1)n2C[C@@H]1CCCN2CCCCC12 (some centres undefined) was tested, and the GI50 was inactive: 9.86 µM. In the case of CCOC(=O)c1c(N)n(-c2ccccc2)c(=O)n(-c2ccccc2)c1=O, the GI50 is reported as inactive: > 100 µM. For N#CC(NNC(=O)c1c(Cl)c(Cl)c(Cl)c(Cl)c1-c1nc2cc(C(=O)c3ccccc3)ccc2[nH]1)c1cccc(Oc2ccccc2)c1 (centres undefined), the GI50 was inactive: 22.5 µM. For C/N=c1/oc2ccccc2cc1C(N)=O, the GI50 was inactive: > 100 µM. In the case of CC(=O)OCC1OC(n2c3c(c(-c4ccc(C)cc4)c(C#N)c2=S)C(=O)CC(C)(C)C3)C(OC(C)=O)C(OC(C)=O)C1OC(C)=O (centres undefined), the GI50 is reported as inactive: > 100 µM. In the case of COc1ccc(-n2c3c(c4c(CN(C)C)c(O)ccc42)C(=O)c2ccccc2C3=O)cc1, the GI50 is reported as inactive: 18.4 µM. With Cn1c(=O)n2n(c1=O)[C@@H](c1ccccc1)[C@H]2c1ccccc1 the GI50 was inactive: > 100 µM. In the case of CC1(C)[C@H]2Cc3cc4nc5ccccn5c4cc3[C@@H]1C2, the GI50 is reported as inactive: 17 µM. For COc1ccc(Nc2cnc3cc(N)ccc3n2)cc1OC, the GI50 was inactive: 72.3 µM. CC1=C(C(=O)CC(=O)C(=O)Nc2ccccc2C)Sc2ccccc2N1 was tested, and the GI50 was inactive: > 100 µM. For CCOC(=O)/C=C(/C(=O)OCC)n1ccc(=O)n(Cc2cnnn2COCCOC(C)=O)c1=O, the GI50 was inactive: > 100 µM. With COC(=O)CN(CC(=O)NCCNC(=O)OC(C)(C)C)C1CCCCC1N(CC(=O)OC)CC(=O)OC (centres undefined) the GI50 was inactive: > 100 µM. CC1(C)O[C@@H](CP(c2cccc3ccccc23)c2cccc3ccccc23)[C@H](CP(c2cccc3ccccc23)c2cccc3ccccc23)O1 was tested, and the GI50 was inactive: > 100 µM. O=C1OC(=O)C2C1C1(c3ccccc3)OC2(c2ccccc2)c2c(Br)c(Br)c(Br)c(Br)c21 (centres undefined) was tested, and the GI50 was inactive: > 100 µM. For CCOC(=O)Nc1sc2c(c1C#N)CC(C)CC2 (centres undefined), the GI50 was inactive: 7.41 µM. For NNC(=O)c1cc(=O)[nH][nH]1, the GI50 was inactive: > 100 µM. With CC(C)(NC1=NCCO1)c1ccccc1 the GI50 was inactive: > 100 µM. COC(=O)Nc1nc2cc(S(=O)(=O)Nc3ccccn3)ccc2[nH]1 was tested, and the GI50 was inactive: 65.2 µM. Cc1ccc2c(c1)CC1(Cc3c(C)cccc3C1=O)C2=O (centres undefined) was tested, and the GI50 was inactive: > 100 µM. CC1=C(C)C(=O)C2=C(OCCO2)C1=O was tested, and the GI50 was inactive: 17.7 µM. For CC1(C)CC(=O)c2c(-c3ccc(Cl)cc3)c(C#N)c(=S)n(C3OC(CO)C(O)C(O)C3O)c2C1 (centres undefined), the GI50 was inactive: 40.2 µM. In the case of CC(Nc1ncc2c(n1)-c1ccccc1OC2)C(=O)O (centres undefined), the GI50 is reported as inactive: 38.2 µM. For CCOC(=O)CC(=O)Nc1cccc2sc3ncccc3c(=O)c12, the GI50 was inactive: 68.9 µM. With O=C1NC2(CCCC2)C(=O)C12CCCC2 the GI50 was inactive: > 100 µM. For COc1cc(OC)c2c(=O)c3c([N+](=O)[O-])cccc3n(C)c2c1, the GI50 was inactive: > 100 µM. For COc1c2c(cc3c1C(=O)c1c(O)cccc1C3=O)CC(O)CC2 (centres undefined), the GI50 was inactive: 39.5 µM. With O=C(CC(=O)N(C(=O)c1ccccc1)c1ccc(Cl)cc1)N/N=C\c1ccccc1O the GI50 was inactive: > 100 µM. COc1ccc2nc3ccccc3c(NCCCCN(C)CCCl)c2c1 was tested, and the GI50 was active: 0.115 µM. With C/C(=N\Nc1ccc([N+](=O)[O-])cc1[N+](=O)[O-])c1sc(-n2nc(-c3ccccc3)cc2-c2ccccc2)nc1C the GI50 was inactive: 18.1 µM. For [O-][N+]1=NC(c2ccccc2)=C1c1ccccc1, the GI50 was inactive: > 50 µM. C/C(=N\N(C)C)c1sc(-n2nc(-c3ccccc3)cc2-c2ccccc2)nc1C was tested, and the GI50 was inactive: > 100 µM. In the case of CCOC1=NC(=O)CC(c2ccccc2)S1 (centres undefined), the GI50 is reported as inactive: > 100 µM. For O=C(NO)C12C3C4C1C1C2C3C41C(=O)NO (centres undefined), the GI50 was inactive: > 100 µM. For CCCC(=O)Nc1cn(COC)c(C(=O)N2C[C@H]3C[C@@]34C2=CC(=O)c2[nH]cc(C)c24)n1, the GI50 was inactive: 8.04 µM. CN1CCN(C2=C(Cl)C(=O)c3c(O)ccc(O)c3C2=O)CC1 was tested, and the GI50 was inactive: 1.73 µM. COc1ccc(/N=N/c2ccc3oc(=O)c(C(=O)Nc4ccccc4C)cc3c2)cc1 was tested, and the GI50 was inactive: > 10 µM. With CC1(C)N=C(N)N=C(N)N1c1ccc(CCc2ccccc2)cc1 the GI50 was inactive: 1.96 µM. In the case of O=c1[nH]c2ccccc2c(=O)n1/N=C/c1ccc(O)cc1, the GI50 is reported as inactive: > 100 µM. For O=C1OC(c2ccccc2)=N/C1=C/N1CCCC1C(=O)O (centres undefined), the GI50 was inactive: > 100 µM. With NC(=O)N=C(N(Cc1ccccc1)Cc1ccccc1)N(Cc1ccccc1)Cc1ccccc1 the GI50 was inactive: 29.2 µM. For COc1ccc(NC(=O)C(=O)C(CC2C(=O)NC(=S)NC2=O)C(=O)c2ccc3ccccc3c2)c([N+](=O)[O-])c1 (centres undefined), the GI50 was inactive: > 100 µM. With COc1ccc(C2=NN(C(C)=O)c3nc4ccccc4nc3O2)cc1 the GI50 was inactive: 61.4 µM. For C=CC[C@H](C[C@H](C[C@H](C[C@H](C[C@H](C[C@H](C[C@H](C[C@H](C[C@H](C[C@H](CCCCC)OC)OC)OC)OC)OC)OC)OC)OC)OC)OC, the GI50 was inactive: > 100 µM. COC1(C)Cc2c(c(C)c(O)c3c2C(=O)C=C(Cl)C3=O)O1 (centres undefined) was tested, and the GI50 was inactive: > 100 µM. For O=C1NC(=O)C2(CCc3ccc(N(CCCl)CCCl)cc32)N1 (centres undefined), the GI50 was inactive: 48.8 µM. CC(=O)Nc1ccc(S(=O)(=O)[N-]C2C(=O)c3ccccc3C(=O)C2[n+]2ccccc2)cc1 (centres undefined) was tested, and the GI50 was inactive: > 100 µM. In the case of CC1=[N+]([O-])C2(CCCC2)N(O)C1(C)C, the GI50 is reported as inactive: > 100 µM. For C1CCC(CC2CCC(NC3=NCCO3)CC2)CC1 (centres undefined), the GI50 was inactive: 27.8 µM. For CCCCCCCCCC[C@@H](O)[C@@H]1CC[C@@H]([C@@H]2CC[C@@H]([C@@H](O)CCCCCCCCCC[C@H](O)CC3=CC(C)OC3=O)O2)O1 (some centres undefined), the GI50 was inactive: 3.21 µM. For Nc1nc(O)nc2c1ncn2C1OC(CO)C(O)C1O (centres undefined), the GI50 was inactive: 76.4 µM. Cc1cccc(-c2cc(O)c3cccnc3n2)c1 was tested, and the GI50 was active: 0.524 µM. For CC(=O)OC(C)(C)/C=C/C(=O)[C@](C)(O)[C@H]1[C@H](O)C[C@@]2(C)[C@@H]3CC=C4[C@@H](C[C@H](O)C(=O)C4(C)C)[C@]3(C)C(=O)C[C@]12C, the GI50 was active: 0.241 µM. CCCCCCCCCCCCCC[C@@H](O)[C@H]1CC[C@H]([C@H]2CC[C@H]([C@H](O)CCCCCC[C@@H](O)CC3=C[C@H](C)OC3=O)O2)O1 was tested, and the GI50 was inactive: > 25 µM.
